In the supplement of paper PMC8728848:
Some of the results follow.

Assays:
Assay in all cases: glycan array binding signal (z-score within array); higher = stronger binding
Details in all cases: glycan notation: IUPAC condensed, linker removed
[1] = biological target: Fuc(a1-2)Gal
Summary of the method: (§1)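 From the Consortium for Functional Glycomics database, 3228 arrays were curated, keeping only those whose protein sequence was available. Binding is given as a within-array Z-score averaged across arrays sharing a protein sequence and across linkers. Negative Z-scores can be read as non-binding.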

[2] = biological target: Fuc(a1-2)Gal(b1-3)GalNAc
Summary of the method: as §1

[3] = biological target: Fuc(a1-2)Gal(b1-3)GalNAc(a1-3)[Fuc(a1-2)]Gal(b1-4)Glc
Summary of the method: as §1

[4] = biological target: Fuc(a1-2)Gal(b1-3)GalNAc(a1-3)[Fuc(a1-2)]Gal(b1-4)GlcNAc
Summary of the method: as §1

[5] = biological target: Fuc(a1-2)Gal(b1-3)GalNAc(b1-3)Gal
Summary of the method: as §1

[6] = biological target: Fuc(a1-2)Gal(b1-3)GalNAc(b1-3)Gal(a1-4)Gal(b1-4)Glc
Summary of the method: as §1

[7] = biological target: Fuc(a1-2)Gal(b1-3)GalNAc(b1-4)[Neu5Ac(a2-3)]Gal(b1-4)Glc
Summary of the method: as §1

[8] = biological target: Fuc(a1-2)Gal(b1-3)GlcNAc
Summary of the method: as §1

[9] = biological target: Fuc(a1-2)Gal(b1-3)GlcNAc(b1-2)Man(a1-3)[Fuc(a1-2)Gal(b1-3)GlcNAc(b1-2)Man(a1-6)]Man(b1-4)GlcNAc(b1-4)GlcNAc
Summary of the method: as §1

[10] = biological target: Fuc(a1-2)Gal(b1-3)GlcNAc(b1-3)Gal(b1-4)Glc
Summary of the method: as §1

[11] = biological target: Fuc(a1-2)Gal(b1-3)GlcNAc(b1-3)[Fuc(a1-3)[Gal(b1-4)]GlcNAc(b1-6)]Gal(b1-4)Glc
Summary of the method: as §1

[12] = biological target: Fuc(a1-2)Gal(b1-3)[Fuc(a1-4)]GlcNAc
Summary of the method: as §1

[13] = biological target: Fuc(a1-2)Gal(b1-3)[Fuc(a1-4)]GlcNAc(b1-2)Man(a1-3)[Fuc(a1-2)Gal(b1-3)[Fuc(a1-4)]GlcNAc(b1-2)Man(a1-6)]Man(b1-4)GlcNAc(b1-4)GlcNAc
Summary of the method: as §1

[14] = biological target: Fuc(a1-2)Gal(b1-3)[Fuc(a1-4)]GlcNAc(b1-3)[Fuc(a1-3)[Gal(b1-4)]GlcNAc(b1-6)]Gal(b1-4)Glc
Summary of the method: as §1

[15] = biological target: Fuc(a1-2)Gal(b1-3)[Fuc(a1-4)]GlcNAc(b1-3)[Gal(b1-4)GlcNAc(b1-6)]Gal(b1-4)Glc
Summary of the method: as §1

[16] = biological target: Fuc(a1-2)Gal(b1-4)Glc
Summary of the method: as §1

[17] = biological target: Fuc(a1-2)Gal(b1-4)Glc6S
Summary of the method: as §1

[18] = biological target: Fuc(a1-2)Gal(b1-4)GlcNAc
Summary of the method: as §1

[19] = biological target: Fuc(a1-2)Gal(b1-4)GlcNAc(b1-2)Man(a1-3)[Fuc(a1-2)Gal(b1-4)GlcNAc(b1-2)Man(a1-6)]Man(b1-4)GlcNAc(b1-4)GlcNAc
Summary of the method: as §1

[20] = biological target: Fuc(a1-2)Gal(b1-4)GlcNAc(b1-3)Gal(b1-4)GlcNAc
Summary of the method: as §1

[21] = biological target: Fuc(a1-2)Gal(b1-4)GlcNAc(b1-3)Gal(b1-4)GlcNAc(b1-3)Gal(b1-4)GlcNAc
Summary of the method: as §1

[22] = biological target: Fuc(a1-2)Gal(b1-4)GlcNAc(b1-3)GalNAc
Summary of the method: as §1

[23] = biological target: Fuc(a1-2)Gal(b1-4)GlcNAc6S
Summary of the method: as §1

[24] = biological target: Fuc(a1-2)Gal(b1-4)[Fuc(a1-3)]GlcNAc
Summary of the method: as §1

[25] = biological target: Fuc(a1-2)Gal(b1-4)[Fuc(a1-3)]GlcNAc(b1-2)Man(a1-3)[Fuc(a1-2)Gal(b1-4)[Fuc(a1-3)]GlcNAc(b1-2)Man(a1-6)]Man(b1-4)GlcNAc(b1-4)GlcNAc
Summary of the method: as §1

[26] = biological target: Fuc(a1-2)Gal(b1-4)[Fuc(a1-3)]GlcNAc(b1-3)Gal(b1-4)[Fuc(a1-3)]GlcNAc
Summary of the method: as §1

[27] = biological target: Fuc(a1-2)Gal(b1-4)[Fuc(a1-3)]GlcNAc(b1-3)Gal(b1-4)[Fuc(a1-3)]GlcNAc(b1-3)Gal(b1-4)[Fuc(a1-3)]GlcNAc
Summary of the method: as §1

[28] = biological target: Fuc(a1-2)Gal6S(b1-4)Glc
Summary of the method: as §1

[29] = biological target: Fuc(a1-2)Gal6S(b1-4)Glc6S
Summary of the method: as §1

[30] = biological target: Fuc(a1-2)Gal6S(b1-4)GlcNAc
Summary of the method: as §1

B1: SAG3 (Toxoplasma gondii), Q9BJ39 (protein)
chain: MQLWRRRAAGPASLGRQSLPLGCFFAAFGLCVLSAILGTGERGLFVAAGNSRRKITYFGTLTQKAPNWYRCSSTRAKEEVVGHVTLNKEHPDMTIECVDDGLGGEFLPLEGARSSYPRVCHIDAKDQDDCERNRGFLTDYIPGAKQYWYKIEKVEQNGEQSVLYKFTVPWILLPPAKQRYKVGCRYPNHEYCFVEVTVEPTPPMVEGKRVTCGYSESGPVNLEVDLSKNANFIEIRCGEQHHPQPSTYTLQYCSGDSVDPQKCSPQSLTNIFYDYSSSWWKGKLNGPDGATLTIPPGGFPEEDKSFLVGCSLTVDGPPFCNVKVRVAGNPRKWERGGGGHPGSGGLQPGTDGETQAGTGSSAGASSRMASVALAFLLGLLVHVAA
glycan array binding signal (z-score) [1]: -0.404 | glycan array binding signal (z-score) [2]: -0.359 | glycan array binding signal (z-score) [3]: -0.149 | glycan array binding signal (z-score) [4]: -0.171 | glycan array binding signal (z-score) [5]: 0.246 | glycan array binding signal (z-score) [6]: -0.474 | glycan array binding signal (z-score) [7]: -0.111 | glycan array binding signal (z-score) [8]: -0.116 | glycan array binding signal (z-score) [9]: 0.107 | glycan array binding signal (z-score) [10]: -0.246 | glycan array binding signal (z-score) [11]: 0.235 | glycan array binding signal (z-score) [12]: -0.519 | glycan array binding signal (z-score) [13]: 6.32 | glycan array binding signal (z-score) [14]: -0.082 | glycan array binding signal (z-score) [15]: 0.4 | glycan array binding signal (z-score) [16]: -0.397 | glycan array binding signal (z-score) [17]: -0.145 | glycan array binding signal (z-score) [18]: 0.63 | glycan array binding signal (z-score) [19]: -0.221 | glycan array binding signal (z-score) [20]: -0.708 | glycan array binding signal (z-score) [21]: -0.005 | glycan array binding signal (z-score) [22]: -0.177 | glycan array binding signal (z-score) [23]: 0.074 | glycan array binding signal (z-score) [24]: -0.359 | glycan array binding signal (z-score) [25]: 2.31 | glycan array binding signal (z-score) [26]: 0.251 | glycan array binding signal (z-score) [27]: -0.127 | glycan array binding signal (z-score) [28]: 0.041 | glycan array binding signal (z-score) [29]: -0.015 | glycan array binding signal (z-score) [30]: -0.304
